Assay results as given in PMC2685003.
Results are given in words; binding and its absence hold for the method and conditions named. In cells and extracts the contact can be indirect. Some results given as binding are weak or reduced against the parent protein; the word gives no strength.

Amino acid sequences for entries named in this document (tags omitted). Residues count along the entry.
UniProt Q9QUK6, residues 26-835: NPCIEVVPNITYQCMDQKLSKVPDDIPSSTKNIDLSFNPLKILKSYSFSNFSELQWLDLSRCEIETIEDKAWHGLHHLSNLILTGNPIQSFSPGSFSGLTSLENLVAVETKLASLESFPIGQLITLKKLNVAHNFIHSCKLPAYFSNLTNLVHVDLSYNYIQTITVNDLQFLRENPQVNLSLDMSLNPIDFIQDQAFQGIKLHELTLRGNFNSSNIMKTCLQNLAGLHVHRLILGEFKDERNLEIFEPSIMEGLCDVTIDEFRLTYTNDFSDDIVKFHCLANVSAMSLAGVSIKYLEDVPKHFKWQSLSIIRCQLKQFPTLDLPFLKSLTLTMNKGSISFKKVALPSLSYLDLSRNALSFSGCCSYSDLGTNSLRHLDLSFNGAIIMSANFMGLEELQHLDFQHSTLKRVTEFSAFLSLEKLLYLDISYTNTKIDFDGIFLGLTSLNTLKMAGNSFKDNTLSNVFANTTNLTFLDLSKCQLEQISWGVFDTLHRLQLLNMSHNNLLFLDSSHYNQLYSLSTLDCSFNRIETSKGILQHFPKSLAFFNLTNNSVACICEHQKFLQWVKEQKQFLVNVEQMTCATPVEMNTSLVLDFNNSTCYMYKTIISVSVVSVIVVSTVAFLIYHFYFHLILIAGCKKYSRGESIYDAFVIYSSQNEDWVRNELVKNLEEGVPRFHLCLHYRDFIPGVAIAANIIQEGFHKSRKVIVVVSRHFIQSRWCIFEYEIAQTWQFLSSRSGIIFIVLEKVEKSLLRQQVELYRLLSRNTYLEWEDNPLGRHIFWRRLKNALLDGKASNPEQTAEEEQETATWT

T1: CD23 (FcεRII) (mouse (endogenous in peritoneal PMNs and macrophages)) (UniProt P20693)
T1 sequence: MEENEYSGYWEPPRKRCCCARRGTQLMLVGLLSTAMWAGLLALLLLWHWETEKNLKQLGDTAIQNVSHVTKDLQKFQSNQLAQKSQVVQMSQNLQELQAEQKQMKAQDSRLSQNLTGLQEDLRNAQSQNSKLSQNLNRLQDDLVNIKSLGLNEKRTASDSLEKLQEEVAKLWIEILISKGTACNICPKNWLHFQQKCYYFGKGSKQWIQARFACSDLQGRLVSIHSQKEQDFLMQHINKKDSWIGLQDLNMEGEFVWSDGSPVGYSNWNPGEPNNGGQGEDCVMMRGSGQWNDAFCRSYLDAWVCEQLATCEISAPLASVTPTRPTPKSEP

T2: FcγReceptorIII (CD16) (mouse (endogenous in peritoneal PMNs and macrophages)) (UniProt P08508)
T2 sequence: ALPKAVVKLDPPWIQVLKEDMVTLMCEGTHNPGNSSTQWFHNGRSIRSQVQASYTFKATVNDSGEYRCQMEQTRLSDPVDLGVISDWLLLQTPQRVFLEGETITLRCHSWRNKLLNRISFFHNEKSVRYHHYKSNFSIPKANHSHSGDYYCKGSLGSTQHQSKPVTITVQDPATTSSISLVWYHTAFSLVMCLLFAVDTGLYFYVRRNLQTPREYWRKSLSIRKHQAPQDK

T3: TLR6 (mouse (endogenous in peritoneal PMNs and macrophages)) (UniProt Q9EPW9)
T3 sequence: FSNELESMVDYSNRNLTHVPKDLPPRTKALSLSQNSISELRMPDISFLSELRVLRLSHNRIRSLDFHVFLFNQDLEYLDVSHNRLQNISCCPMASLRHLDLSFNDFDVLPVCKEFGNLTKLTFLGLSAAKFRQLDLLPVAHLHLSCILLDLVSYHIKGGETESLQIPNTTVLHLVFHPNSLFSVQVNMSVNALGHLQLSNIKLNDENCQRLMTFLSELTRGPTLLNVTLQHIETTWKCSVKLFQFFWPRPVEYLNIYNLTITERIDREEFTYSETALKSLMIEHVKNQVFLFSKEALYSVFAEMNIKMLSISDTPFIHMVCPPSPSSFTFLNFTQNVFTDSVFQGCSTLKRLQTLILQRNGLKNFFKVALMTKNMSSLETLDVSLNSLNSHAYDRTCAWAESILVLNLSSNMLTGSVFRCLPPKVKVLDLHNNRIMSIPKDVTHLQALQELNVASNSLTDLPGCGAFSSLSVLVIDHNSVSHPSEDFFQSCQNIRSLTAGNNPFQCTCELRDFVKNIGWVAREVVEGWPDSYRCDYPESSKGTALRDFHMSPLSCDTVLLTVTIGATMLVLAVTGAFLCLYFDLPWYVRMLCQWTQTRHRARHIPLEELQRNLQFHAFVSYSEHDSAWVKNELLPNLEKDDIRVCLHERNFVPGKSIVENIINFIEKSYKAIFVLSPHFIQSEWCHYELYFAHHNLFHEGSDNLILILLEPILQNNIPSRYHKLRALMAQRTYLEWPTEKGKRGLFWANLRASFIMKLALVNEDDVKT

B1: FcγReceptorIII (CD16) (receptor, UniProt P08508 31-261)
chain: T2 sequence

Tests used:
[1] = biological target: T1, CD23 (FcεRII) (mouse (endogenous in peritoneal PMNs and macrophages)); assay: co-IP; lysates of Wt mouse phagocytes incubated with IgGIC, LPS or both; IP with anti-CD23 (anti-FcεRII); blot with anti-TLR4 IgG
[2] = biological target: T2, FcγReceptorIII (CD16) (mouse (endogenous in peritoneal PMNs and macrophages)); assay: co-IP; reverse direction: lysates of Wt mouse peritoneal PMNs or macrophages incubated with IgGIC, LPS or both; IP with anti-FcγRIII IgG (Santa Cruz); blot with polyclonal anti-TLR4 IgG
[3] = biological target: Toll-like receptor 4 (TLR4) (mouse (endogenous in peritoneal PMNs and macrophages)) (UniProt Q9QUK6); assay: co-IP; lysates (RIPA) of Wt mouse peritoneal PMNs or macrophages incubated 30 min with IgGIC (100 µg/ml; BSA IgGIC, polymyxin-treated BSA IgGIC or PAP IgGIC) or LPS+IgGIC; IP with anti-TLR4 IgG on protein A and G beads overnight; blot with anti-FcγRII/III mAb 2.4G2
[4] = biological target: Toll-like receptor 4 (TLR4) (mouse (endogenous in peritoneal PMNs and macrophages)) (UniProt Q9QUK6); assay: condition: only cells incubated with LPS (20 ng/ml) alone, without IgGIC; co-IP; as a1, but cells incubated 30 min with LPS (20 ng/ml) alone; IP with anti-TLR4 IgG; blot with anti-FcγRII/III mAb 2.4G2
[5] = biological target: T3, TLR6 (mouse (endogenous in peritoneal PMNs and macrophages)); assay: co-IP; lysates of Wt mouse phagocytes incubated with IgGIC, LPS or both; IP with anti-TLR6 IgG; blot for FcγRIII

Row | Molecule | binding [1] | binding [2] | binding [3] | binding [4] | binding [5]
1 | Toll-like receptor 4 (TLR4) (from UniProt Q9QUK6 26-835) | no binding | binds |  |  | 
2 | B1 |  |  | binds | no binding | no binding
